Source: PMC12136788
The other results are listed elsewhere or left out.

B1: chr22:30522798:30525066:-|three_prime_utr|ENSG00000214491|control|control|control (ssRNA)
RNA: GGGAGUUCUACAGUCCGACGAUCGCUACACCGUGGAGGUACUGCUCCCAGACCAAACCUUCAUGGAGAAGAUGGAGAAAUUCUAGGUGAACCUCAUGGUCCCCACACCCUCCUCUUUGAUCUCUGAAUCCACAAUGAGUUCACCAACAGAGGAUUGAGCAUCA
B2: ENSG00000124766:be:win_1901|3pUTR|ENSG00000124766|bound_else_gene|NA|bound_elsewhere_windowed (ssRNA)
RNA: GGGAGUUCUACAGUCCGACGAUCUUAUUUUGCUUCUUGGUCAAGAAAGGAGGGGAGAACCCAGCGCACCCCUCCCCCCCUUUUUUUAAACGCGUGAUGAAGACAGAAGGCUCCGGGGUGACGAAUUUGGCCGAUGGCAGAUGUCAACAGAGGAUUGAGCAUCA
B3: chr11:46542767:46542868:-|CDS|ENSG00000110497|msi1|FALSE|unique (ssRNA)
RNA: GGGAGUUCUACAGUCCGACGAUCAACACGCUCCGCAACCUCAGUCUGGGUCCUACCCGCCGCUCUUUGGGAGGGCCUCUGUCUAGCCACCCUUCUAGGUAUCACCGAGAAAUAGCUCCUGGGUUGACAGGAUCUGAGUGGACCCAACAGAGGAUUGAGCAUCA
B4: chrX:130230552:130230660:-|CDS|ENSG00000056277|unk|FALSE|unique (ssRNA)
RNA: GGGAGUUCUACAGUCCGACGAUCAUCAGAACGUCCAUGUGAUGAAGACAAGACUGAUUCAGAGACAGGAAAGUUGAUCAUGUUAGUCAAUGAGUUUUAUUAUGGAAGGCAUGAAGGAGUCACUGAGAAAGAGCCAAAGACUUACAACAGAGGAUUGAGCAUCA
B5: ENSG00000136451:be:win_701|CDS|ENSG00000136451|bound_else_gene|NA|bound_elsewhere_windowed (ssRNA)
RNA: GGGAGUUCUACAGUCCGACGAUCGCAGUGUUUGUGGGAAAGGCUUCUCAAGGCCUGACCACUUAAGCUGUCAUGUAAAACAUGUCCAUUCAACAGAAAGACCCUUCAAAUGCCAAACGUGCACUGCUGCCUUUGCCACCAAAGCAACAGAGGAUUGAGCAUCA
B6: chr2:27133116:27133337:-|CDS|ENSG00000138073|control|control|control (ssRNA)
RNA: GGGAGUUCUACAGUCCGACGAUCACCCAGCACGAGGGGCUAGAACUCAGGGUAGAGAAUUUGCAGGCGGUGCAGACAGACUUUAGCUCCGAUCCACUGCAGAAAGUUGUGUGCUUCAACCACGAUAAUACCCUGCUUGCCACUCAACAGAGGAUUGAGCAUCA
B7: ENSG00000109099:stop:overlap|stop_codon|ENSG00000109099|stop_codon|NA|stop_codon (ssRNA)
RNA: GGGAGUUCUACAGUCCGACGAUCCAUUAGAUAAGUCAGACAGAGCCCAAGAGACAACUUCAGUAUUUCUUAAAGACAAGAGUUAGCACUUUGGAGAUGCAAGCCGUGGAAGAGUGGGGCAAGAUAAUUAAGGAUCCUGGACCUCAACAGAGGAUUGAGCAUCA
B8: chr4:123402332:123402450:+|CDS|ENSG00000164056|unk|total|mutant (ssRNA)
RNA: GGGAGUUCUACAGUCCGACGAUCGACGAAGGGGAUUCCUAUUCAGAUAAUCCUUGCUCCUGUUCACAAUCACACUGCUGCUCCCGAUACCUGUGUAUGGGAGCCAUGUCUUUAUUUUUACCUUGCUUACUCUGUUAUCCUCCUCAACAGAGGAUUGAGCAUCA
B9: ENSG00000198589:be:win_7201|CDS|ENSG00000198589|bound_else_gene|NA|bound_elsewhere_windowed (ssRNA)
RNA: GGGAGUUCUACAGUCCGACGAUCGAGAGUGAAUUUGUUUCCUGCCAGCUUCACCAAUGGAUUGAUCUCAUUUUUGGCUAUAAACAGCAAGGACCAGAAGCUGUCCGAGCCCUCAAUGUGUUCUAUUACUUGACCUAUGAAGGACAACAGAGGAUUGAGCAUCA
B10: chr17:80295660:80295761:+|CDS|ENSG00000173821|msi1|FALSE|bound_elsewhere (ssRNA)
RNA: GGGAGUUCUACAGUCCGACGAUCGAGUAAACUGAAAACAGGCCUGAUUGUCCUUUUUGUAGUGGAAAAAAUUGAGCUUUUAUUAGAAGGCAGCCUGGACUGGUUGUGUCACCUCCUAACCUCAGAUGCCAGCUCACCAGAUGACAACAGAGGAUUGAGCAUCA
B11: chr2:165759335:165759570:-|CDS|ENSG00000115339|control|control|control (ssRNA)
RNA: GGGAGUUCUACAGUCCGACGAUCUCUGUUGGCCAGAAUAGCUGAGAACUACACGGCUGUCGUAAGUCCAGAUAUUGCAUCCAUAGAUCUGAACACGUUUGAAUUCAACAAACCUUCUCCUUAUGGAAGUAACCAUAACCGUGGCAACAGAGGAUUGAGCAUCA
B12: chr11:4094911:4095012:+|5pUTR|ENSG00000167325|unk|FALSE|unique (ssRNA)
RNA: GGGAGUUCUACAGUCCGACGAUCAGCAGCGCCUGGAACCUAACCCUUCCCACUCUGUCACCUUCUCGAUCCCGCCGGCGCUUUAGAGCCGCAGUCCAGUCUUGGAUCCUUCAGAGCCUCAGCCACUAGCUGCGAUGCAUGUGACAACAGAGGAUUGAGCAUCA
B13: ENSG00000150457:stop:overlap|stop_codon|ENSG00000150457|stop_codon|NA|stop_codon (ssRNA)
RNA: GGGAGUUCUACAGUCCGACGAUCCAGAUUUAGAAAGCUCUGAUCUGGUGGAUCAGACUGAAGGCUGCCAGCCUGUGUACGUGUAGAUGGGGGCCAGGCACCCCCACCACUCGCUGCCUCCCAGGUCAGGGUCCCGGAGCCGGUCAACAGAGGAUUGAGCAUCA
B14: chr17:34256851:34257067:+|3pUTR|ENSG00000108691|msi1|total|mutant (ssRNA)
RNA: GGGAGUUCUACAGUCCGACGAUCUUAAGUAAUGUUAAUUCUUAUUUAAGUUAUUGAUGUUUUAAGUUUAUCUUUCAUGGUACCCGUGUUUUUCCGAUACAGAGACUUGGGGAAAUUGCUUUUCCUCUUGAACCACAGUUCUACCAACAGAGGAUUGAGCAUCA
B15: chr12:909583:909684:+|3pUTR|ENSG00000060237|unk|FALSE|bound_elsewhere (ssRNA)
RNA: GGGAGUUCUACAGUCCGACGAUCUAGCUCUGUCCUUUACUUAUUGAGACACUUUAACUUUUUCCUUUGUAUUUCCAUUGUAUUAGAUAAAUAAAUGUGAAUGUAAAAUUGUAUAAAUUACUGUACUUGAAUACUUCUGUUUCCCAACAGAGGAUUGAGCAUCA
B16: chr12:29502561:29502662:-|3pUTR|ENSG00000133687|msi1|total|mutant (ssRNA)
RNA: GGGAGUUCUACAGUCCGACGAUCUCUUAACAAUGAUGUAUGGCACAAUUGGUUGGUUGAGGCUAUCAUUCCAUGAUUACAAACCGGUGGUUAUGUGGGGUGGUUUUGCACUUGUGGCAAUUGGACUGCAAUUUGGCCUUAAAACAACAGAGGAUUGAGCAUCA
B17: chr13:25097967:25098071:+|CDS|ENSG00000151846|unk|total|mutant (ssRNA)
RNA: GGGAGUUCUACAGUCCGACGAUCAGAACUUCUUUAUAUGCUCGAGUCUCCAGAGUCACUCCGUUCUAAGGUUGAUGAAGCUGCCGCUGUACUACAAGCCCACCAAGCUAAAGAGGCUACCCAGAAAGCAGUUAACAGUGCUACCAACAGAGGAUUGAGCAUCA
B18: chr17:3714672:3714773:-|3pUTR|ENSG00000083457|msi1_unk|total|mutant (ssRNA)
RNA: GGGAGUUCUACAGUCCGACGAUCUUUGCAUUACUUUUUCCUUCAGGAUGAUCCCGAGCAGCAUGGAGCUGUUGGCCGAAUAUCCGUUUUUAACCAUACAUUGUCCCAAAAGUGUCUGUGCAUUGUGCAAAAAGUAAACUCCGGCAACAGAGGAUUGAGCAUCA
B19: chr8:38142699:38144272:-|three_prime_utr|ENSG00000147465|control|control|control (ssRNA)
RNA: GGGAGUUCUACAGUCCGACGAUCGGAAGCCUGCAAGUCUAAGAUCUCCAUCUGGUGACAGUGGGAUGGGUGGGGUUCGUGUUUAGAGUAUGACACUAGGAUUCAGAUUGGUGAAAGUUUUUAGUACCAAGAAAACAGGGAUGACAACAGAGGAUUGAGCAUCA
B20: chr12:62383855:62383964:+|CDS|ENSG00000135655|unk|total|mutant (ssRNA)
RNA: GGGAGUUCUACAGUCCGACGAUCGGCCGGACGUUUUGCACCUCAGUUCUCUGGAUAUCAGCAGCAAGACUGUCAAGAACUGUCCGCUUUCCUAUCCGAUGGAUUACAUGAGGAUUUGAACCGAAUCCGGAAAAAACCAUAUAUCAACAGAGGAUUGAGCAUCA
B21: chr11:112063736:112063838:+|3pUTR|ENSG00000150768|unk|total|mutant (ssRNA)
RNA: GGGAGUUCUACAGUCCGACGAUCGAGAGAAAAAAUUAACCCGGUUGCUACUUUAUUUGCCUAAAUACUUUUUUCUAUUUUGUCCGAUUUUGCCUUUCUUUUGGAAGGAAGGAGGCGAUAUUCUGGAUUAUAAAAAUGAAUUGGCAACAGAGGAUUGAGCAUCA
B22: chr7:139028693:139028797:-|CDS|ENSG00000146858|unk|total|mutant (ssRNA)
RNA: GGGAGUUCUACAGUCCGACGAUCUUUCAGAUAAUCUCCACCUACAAGCAUAUGAAGCUGCACAAGAUGCUUGAAAAUACAGGCCGGAAUAUCCAAGAAGGACAGAGAAGUAUCAGCGAUAUGGUUUUGCGAUGCUUCACUGUGCAACAGAGGAUUGAGCAUCA

Each binder was assayed against MSI1 full-length (mouse, UniProt Q61474 1-362) (assay: nsRBNS (natural sequence RNA bind-n-seq); RBNS binding buffer (assumed for nsRBNS): 25 mM Tris pH 7.5, 150 mM KCl, 3 mM MgCl2, 0.01% Triton X-100, 500 ug/ml BSA, 20 U/ml SUPERase-In, 4 C; UNK is unkempt and MSI1 is Musashi-1; names of the RNAs are library labels; protein concentration not given here; high values mean tight binding).
Sequence of UniProt Q61474 (Q61474 whole entry): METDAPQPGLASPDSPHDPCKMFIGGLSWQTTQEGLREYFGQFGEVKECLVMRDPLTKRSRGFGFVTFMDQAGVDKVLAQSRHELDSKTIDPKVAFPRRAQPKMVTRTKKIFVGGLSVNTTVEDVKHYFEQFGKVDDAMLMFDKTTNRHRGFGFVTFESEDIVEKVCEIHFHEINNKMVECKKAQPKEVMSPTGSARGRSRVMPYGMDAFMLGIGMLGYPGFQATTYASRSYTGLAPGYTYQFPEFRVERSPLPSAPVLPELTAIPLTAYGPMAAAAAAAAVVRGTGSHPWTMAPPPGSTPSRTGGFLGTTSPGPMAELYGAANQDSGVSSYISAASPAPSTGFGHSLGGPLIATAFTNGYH

Binder | binding signal [enrichment R]
B1 | 0.567
B2 | 0.422
B3 | 0.657
B4 | 0.666
B5 | 0.287
B6 | 0.445
B7 | 0.296
B8 | 0.558
B9 | 0.364
B10 | 1.08
B11 | 0.318
B12 | 0.635
B13 | 0.418
B14 | 0.643
B15 | 13.1
B16 | 0.31
B17 | 0.468
B18 | 0.264
B19 | 1.43
B20 | 0.357
B21 | 0.378
B22 | 0.231
